This passage reports enrichment results from the supplement of paper PMC12230231.

± gives the standard deviation of the averaged measurements. Restriction of a single-cycle SIVsab GFP reporter by TRIM5α v1-loop variants in CRFK cells. Human variants: read share among cells still uninfected after two challenges over input, higher = gained restriction. Rhesus variants: share among infected cells over input, higher = lost restriction. Reporter dose not given per row. No active / inactive call per row; the paper calls a change when both replicates lie above its controls (mean + 2 SD of stop or wild-type variants, or the top frameshift score). Residues outside the varied loop are taken from Swiss-Prot. The paper reads the human single-substitution scores as noise; they and the rhesus combinations repeat poorly (rank correlation 0.3 to 0.4), indel scores repeat only for the top variants, rhesus substitutions well (0.9).

This series has as its system SIVsab (simian immunodeficiency virus of sabaeus monkeys), single-cycle GFP reporter, in CRFK cells. The series can be described thus: enrichment among uninfected cells over input (fold); higher = stronger restriction. Conditions: library: insertions and deletions. The procedure: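 Pools of CRFK cells expressing variants of the TRIM5α v1 loop were challenged with the single-cycle reporter, sorted by GFP and sequenced; mean of two replicates.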
With “MASGILVNVKEEVTCPICLELLTQPLSLDCGHSFCQACLTANHKKSMLDKGESSCPVCRISYQPENIRPNRHVANIVEKLREVKLSPEGQKVDHCARHGEKLLLFCQEDGKVICWLCERSQEHRGHHTFLTEEVAREYQVKLQAALEMLRQKQQEAEELEADIREEKASWKTQIQYDKTNVLADFEQLRDILDWEESNELQNLEKEEEDILKSLTNSETEMVQQTQSLRELISDLEHRLQGSVMELLQGVDGVIKRTENVTLKKPETFPKNQRRVFRAPDLKGMLEVFRELTDVRRYWVDVTVAPNNISCAVISEDKRQVSSPKPQIIYGARGTRYQTFVNFNYFVNFNYCTGILGSQSITSGKHYWEVDVSKKTAWILGVCAGFQPDAMCNIEKNENYQPKYGYWVIGLEEGVKCSAFQDSSFHTPSVPFIVPLSVIICPDRVGVFLDYEACTVSFFNITNHGFLIYKFSHCSFSQPVFPYLNPRKCGVPMTLCSPSS [human TRIM5α, 6-codon duplication at 339]”, the enrichment was found to be 1.17 ± 0.23. The same measure for “MASGILVNVKEEVTCPICLELLTQPLSLDCGHSFCQACLTANHKKSMLDKGESSCPVCRISYQPENIRPNRHVANIVEKLREVKLSPEGQKVDHCARHGEKLLLFCQEDGKVICWLCERSQEHRGHHTFLTEEVAREYQVKLQAALEMLRQKQQEAEELEADIREEKASWKTQIQYDKTNVLADFEQLRDILDWEESNELQNLEKEEEDILKSLTNSETEMVQQTQSLRELISDLEHRLQGSVMELLQGVDGVIKRTENVTLKKPETFPKNQRRVFRAPDLKGMLEVFRELTDVRRYWVDVTVAPNNISCAVISEDKRQVSSPKPQIIYGARGTRYQTFVNFNYGILGSQSITSGKHYWEVDVSKKTAWILGVCAGFQPDAMCNIEKNENYQPKYGYWVIGLEEGVKCSAFQDSSFHTPSVPFIVPLSVIICPDRVGVFLDYEACTVSFFNITNHGFLIYKFSHCSFSQPVFPYLNPRKCGVPMTLCSPSS [human TRIM5α, 2-codon deletion at 345]”: 0.427 ± 0.28; for “MASGILVNVKEEVTCPICLELLTQPLSLDCGHSFCQACLTANHKKSMLDKGESSCPVCRISYQPENIRPNRHVANIVEKLREVKLSPEGQKVDHCARHGEKLLLFCQEDGKVICWLCERSQEHRGHHTFLTEEVAREYQVKLQAALEMLRQKQQEAEELEADIREEKASWKTQIQYDKTNVLADFEQLRDILDWEESNELQNLEKEEEDILKSLTNSETEMVQQTQSLRELISDLEHRLQGSVMELLQGVDGVIKRTENVTLKKPETFPKNQRRVFRAPDLKGMLEVFRELTDVRRYWVDVTVAPNNISCAVISEDKRQVSSPKPQIIYGARGTRYQTFVNFNYGSQSITSGKHYWEVDVSKKTAWILGVCAGFQPDAMCNIEKNENYQPKYGYWVIGLEEGVKCSAFQDSSFHTPSVPFIVPLSVIICPDRVGVFLDYEACTVSFFNITNHGFLIYKFSHCSFSQPVFPYLNPRKCGVPMTLCSPSS [human TRIM5α, 5-codon deletion at 345]”: 0.678 ± 0.31; for “MASGILVNVKEEVTCPICLELLTQPLSLDCGHSFCQACLTANHKKSMLDKGESSCPVCRISYQPENIRPNRHVANIVEKLREVKLSPEGQKVDHCARHGEKLLLFCQEDGKVICWLCERSQEHRGHHTFLTEEVAREYQVKLQAALEMLRQKQQEAEELEADIREEKASWKTQIQYDKTNVLADFEQLRDILDWEESNELQNLEKEEEDILKSLTNSETEMVQQTQSLRELISDLEHRLQGSVMELLQGVDGVIKRTENVTLKKPETFPKNQRRVFRAPDLKGMLEVFRELTDVRRYWVDVTVAPNNISCAVISEDKRQVSSPKPQIIYGARGTRYQTFVNFNYILGSQSITSGKHYWEVDVSKKTAWILGVCAGFQPDAMCNIEKNENYQPKYGYWVIGLEEGVKCSAFQDSSFHTPSVPFIVPLSVIICPDRVGVFLDYEACTVSFFNITNHGFLIYKFSHCSFSQPVFPYLNPRKCGVPMTLCSPSS [human TRIM5α, 3-codon deletion at 345]”: 0.86 ± 0.89.

In the case of “MASGILVNVKEEVTCPICLELLTQPLSLDCGHSFCQACLTANHKKSMLDKGESSCPVCRISYQPENIRPNRHVANIVEKLREVKLSPEGQKVDHCARHGEKLLLFCQEDGKVICWLCERSQEHRGHHTFLTEEVAREYQVKLQAALEMLRQKQQEAEELEADIREEKASWKTQIQYDKTNVLADFEQLRDILDWEESNELQNLEKEEEDILKSLTNSETEMVQQTQSLRELISDLEHRLQGSVMELLQGVDGVIKRTENVTLKKPETFPKNQRRVFRAPDLKGMLEVFRELTDVRRYWVDVTVAPNNISCAVISEDKRQVSSPKPQIIYGARGTRYQTFVNFNYITSGKHYWEVDVSKKTAWILGVCAGFQPDAMCNIEKNENYQPKYGYWVIGLEEGVKCSAFQDSSFHTPSVPFIVPLSVIICPDRVGVFLDYEACTVSFFNITNHGFLIYKFSHCSFSQPVFPYLNPRKCGVPMTLCSPSS [human TRIM5α, 9-codon deletion at 345]”, the enrichment came out at 2.33 ± 1.4. “MASGILVNVKEEVTCPICLELLTQPLSLDCGHSFCQACLTANHKKSMLDKGESSCPVCRISYQPENIRPNRHVANIVEKLREVKLSPEGQKVDHCARHGEKLLLFCQEDGKVICWLCERSQEHRGHHTFLTEEVAREYQVKLQAALEMLRQKQQEAEELEADIREEKASWKTQIQYDKTNVLADFEQLRDILDWEESNELQNLEKEEEDILKSLTNSETEMVQQTQSLRELISDLEHRLQGSVMELLQGVDGVIKRTENVTLKKPETFPKNQRRVFRAPDLKGMLEVFRELTDVRRYWVDVTVAPNNISCAVISEDKRQVSSPKPQIIYGARGTRYQTFVNFNYLGSQSITSGKHYWEVDVSKKTAWILGVCAGFQPDAMCNIEKNENYQPKYGYWVIGLEEGVKCSAFQDSSFHTPSVPFIVPLSVIICPDRVGVFLDYEACTVSFFNITNHGFLIYKFSHCSFSQPVFPYLNPRKCGVPMTLCSPSS [human TRIM5α, 4-codon deletion at 345]” came in with an enrichment of 1.57 ± 1.6.

As for “MASGILVNVKEEVTCPICLELLTQPLSLDCGHSFCQACLTANHKKSMLDKGESSCPVCRISYQPENIRPNRHVANIVEKLREVKLSPEGQKVDHCARHGEKLLLFCQEDGKVICWLCERSQEHRGHHTFLTEEVAREYQVKLQAALEMLRQKQQEAEELEADIREEKASWKTQIQYDKTNVLADFEQLRDILDWEESNELQNLEKEEEDILKSLTNSETEMVQQTQSLRELISDLEHRLQGSVMELLQGVDGVIKRTENVTLKKPETFPKNQRRVFRAPDLKGMLEVFRELTDVRRYWVDVTVAPNNISCAVISEDKRQVSSPKPQIIYGARGTRYQTFVNFNYNFNYCTGILGSQSITSGKHYWEVDVSKKTAWILGVCAGFQPDAMCNIEKNENYQPKYGYWVIGLEEGVKCSAFQDSSFHTPSVPFIVPLSVIICPDRVGVFLDYEACTVSFFNITNHGFLIYKFSHCSFSQPVFPYLNPRKCGVPMTLCSPSS [human TRIM5α, 4-codon duplication at 341]”, the enrichment worked out at 0.662 ± 0.45. “MASGILVNVKEEVTCPICLELLTQPLSLDCGHSFCQACLTANHKKSMLDKGESSCPVCRISYQPENIRPNRHVANIVEKLREVKLSPEGQKVDHCARHGEKLLLFCQEDGKVICWLCERSQEHRGHHTFLTEEVAREYQVKLQAALEMLRQKQQEAEELEADIREEKASWKTQIQYDKTNVLADFEQLRDILDWEESNELQNLEKEEEDILKSLTNSETEMVQQTQSLRELISDLEHRLQGSVMELLQGVDGVIKRTENVTLKKPETFPKNQRRVFRAPDLKGMLEVFRELTDVRRYWVDVTVAPNNISCAVISEDKRQVSSPKPQIIYGARGTRYQTFVNFNYNYCTGILGSQSITSGKHYWEVDVSKKTAWILGVCAGFQPDAMCNIEKNENYQPKYGYWVIGLEEGVKCSAFQDSSFHTPSVPFIVPLSVIICPDRVGVFLDYEACTVSFFNITNHGFLIYKFSHCSFSQPVFPYLNPRKCGVPMTLCSPSS [human TRIM5α, 2-codon duplication at 343]”: the enrichment is 0.73 ± 0.57. The same measure for “MASGILVNVKEEVTCPICLELLTQPLSLDCGHSFCQACLTANHKKSMLDKGESSCPVCRISYQPENIRPNRHVANIVEKLREVKLSPEGQKVDHCARHGEKLLLFCQEDGKVICWLCERSQEHRGHHTFLTEEVAREYQVKLQAALEMLRQKQQEAEELEADIREEKASWKTQIQYDKTNVLADFEQLRDILDWEESNELQNLEKEEEDILKSLTNSETEMVQQTQSLRELISDLEHRLQGSVMELLQGVDGVIKRTENVTLKKPETFPKNQRRVFRAPDLKGMLEVFRELTDVRRYWVDVTVAPNNISCAVISEDKRQVSSPKPQIIYGARGTRYQTFVNFNYQSITSGKHYWEVDVSKKTAWILGVCAGFQPDAMCNIEKNENYQPKYGYWVIGLEEGVKCSAFQDSSFHTPSVPFIVPLSVIICPDRVGVFLDYEACTVSFFNITNHGFLIYKFSHCSFSQPVFPYLNPRKCGVPMTLCSPSS [human TRIM5α, 7-codon deletion at 345]”: 1.77 ± 0.2. For the sequence “MASGILVNVKEEVTCPICLELLTQPLSLDCGHSFCQACLTANHKKSMLDKGESSCPVCRISYQPENIRPNRHVANIVEKLREVKLSPEGQKVDHCARHGEKLLLFCQEDGKVICWLCERSQEHRGHHTFLTEEVAREYQVKLQAALEMLRQKQQEAEELEADIREEKASWKTQIQYDKTNVLADFEQLRDILDWEESNELQNLEKEEEDILKSLTNSETEMVQQTQSLRELISDLEHRLQGSVMELLQGVDGVIKRTENVTLKKPETFPKNQRRVFRAPDLKGMLEVFRELTDVRRYWVDVTVAPNNISCAVISEDKRQVSSPKPQIIYGARGTRYQTFVNFNYQTFVNFNYCTGILGSQSITSGKHYWEVDVSKKTAWILGVCAGFQPDAMCNIEKNENYQPKYGYWVIGLEEGVKCSAFQDSSFHTPSVPFIVPLSVIICPDRVGVFLDYEACTVSFFNITNHGFLIYKFSHCSFSQPVFPYLNPRKCGVPMTLCSPSS [human TRIM5α, 8-codon duplication at 336]”, the enrichment turned out to be 0.421 ± 0.2.

As for “MASGILVNVKEEVTCPICLELLTQPLSLDCGHSFCQACLTANHKKSMLDKGESSCPVCRISYQPENIRPNRHVANIVEKLREVKLSPEGQKVDHCARHGEKLLLFCQEDGKVICWLCERSQEHRGHHTFLTEEVAREYQVKLQAALEMLRQKQQEAEELEADIREEKASWKTQIQYDKTNVLADFEQLRDILDWEESNELQNLEKEEEDILKSLTNSETEMVQQTQSLRELISDLEHRLQGSVMELLQGVDGVIKRTENVTLKKPETFPKNQRRVFRAPDLKGMLEVFRELTDVRRYWVDVTVAPNNISCAVISEDKRQVSSPKPQIIYGARGTRYQTFVNFNYQTFVNFNYCTGILGSQSITSGKHYWEVDVSKKTAWILGVCAGFQPDAMCNIEKNENYQPKYGYWVIGLEEGVKCSAFQDSSFHTPSVPFIVPLSVIICPDRVGVFLDYEACTVSFFNITNHGFLIYKFSHCSFSQPVFPYLNPRKCGVPMTLCSPSS [human TRIM5α, 8-codon duplication at 337]”, the enrichment turned out to be 0.787 ± 0.92. Take “MASGILVNVKEEVTCPICLELLTQPLSLDCGHSFCQACLTANHKKSMLDKGESSCPVCRISYQPENIRPNRHVANIVEKLREVKLSPEGQKVDHCARHGEKLLLFCQEDGKVICWLCERSQEHRGHHTFLTEEVAREYQVKLQAALEMLRQKQQEAEELEADIREEKASWKTQIQYDKTNVLADFEQLRDILDWEESNELQNLEKEEEDILKSLTNSETEMVQQTQSLRELISDLEHRLQGSVMELLQGVDGVIKRTENVTLKKPETFPKNQRRVFRAPDLKGMLEVFRELTDVRRYWVDVTVAPNNISCAVISEDKRQVSSPKPQIIYGARGTRYQTFVNFNYSITSGKHYWEVDVSKKTAWILGVCAGFQPDAMCNIEKNENYQPKYGYWVIGLEEGVKCSAFQDSSFHTPSVPFIVPLSVIICPDRVGVFLDYEACTVSFFNITNHGFLIYKFSHCSFSQPVFPYLNPRKCGVPMTLCSPSS [human TRIM5α, 8-codon deletion at 345]”: the enrichment turned out to be 0.984 ± 1.2.
